In the supplement of paper PMC7125110:
± gives the standard error. Variants at the floor of the assay are shown more often than the library holds them.

B1: glmS ribozyme (parent)
chain: AUAAAAGCGCCAGAACUACAGAAAUGUAGUUGACGAGGAGGAGGUUUAUCGAAUUUUCGGCGGAUGCCUCCAAA

How the values were obtained:
Settings in all cases: with glucosamine-6-phosphate
glucosamine-6-phosphate [1] = variants of: B1; assay: self-cleavage kobs at 40 uM GlcN6P; higher = faster cleavage; RNA array
Procedure, shortened: (§1)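 Ribozyme variants carrying barcodes were transcribed in situ on sequenced MiSeq chips by E. coli RNA polymerase and tracked at 37 °C with a hybridised Cy3 probe. They were exposed to 40 μM to 10 mM glucosamine-6-phosphate in HEPES/KCl/Mg(OAc)2 buffer. kobs came from exponential decay fits of normalised per-tile medians, and kcat and KM from weighted Michaelis–Menten fits.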

glucosamine-6-phosphate [2] = variants of: B1; assay: self-cleavage kobs at 640 uM GlcN6P; higher = faster cleavage; RNA array
Procedure, shortened: as §1

glucosamine-6-phosphate [3] = variants of: B1; assay: self-cleavage kobs at 160 uM GlcN6P; higher = faster cleavage; RNA array
Procedure, shortened: as §1

glucosamine-6-phosphate [4] = variants of: B1; assay: self-cleavage kobs at 2500 uM GlcN6P; higher = faster cleavage; RNA array
Procedure, shortened: as §1

glucosamine-6-phosphate [5] = variants of: B1; assay: self-cleavage kobs at 10000 uM GlcN6P; higher = faster cleavage; RNA array
Procedure, shortened: as §1

Variant | self-cleavage kobs at 40 uM GlcN6P (glucosamine-6-phosphate [1]) [s⁻¹] | self-cleavage kobs at 640 uM GlcN6P (glucosamine-6-phosphate [2]) [s⁻¹] | self-cleavage kobs at 160 uM GlcN6P (glucosamine-6-phosphate [3]) [s⁻¹] | self-cleavage kobs at 2500 uM GlcN6P (glucosamine-6-phosphate [4]) [s⁻¹] | self-cleavage kobs at 10000 uM GlcN6P (glucosamine-6-phosphate [5]) [s⁻¹]
G29U A39C | 2.91e-05 ± 9.8e-06 | 0.000457 ± 5.8e-05 | 8.26e-05 ± 1.4e-05 | 0.000781 ± 0.0001 | 0.00118 ± 0.00014
U30G U57G | < 1e-05 |  |  |  | 
G29C U46G A52C C68A | < 1e-05 |  |  | < 1e-05 | 
G29C U49G | < 1e-05 |  |  |  | 
G29A A52U C70U | < 1e-05 |  |  |  | 
C16U U30A | 7.15e-05 ± 7.9e-06 | 0.000648 ± 0.00011 | 0.000131 ± 2.6e-05 | 0.00171 ± 0.00029 | 0.00242 ± 0.00027
G29C G38U A53G | < 1e-05 |  | < 1e-05 |  | < 1e-05
G29C A33G A53U | < 1e-05 |  |  |  | < 1e-05
U31C | 0.000168 ± 2.9e-06 | 0.00208 ± 7.4e-05 | 0.000489 ± 1.7e-05 | 0.00415 ± 0.00014 | 0.00805 ± 0.00018
G29U A42C G66U | < 1e-05 | < 1e-05 |  | < 1e-05 | < 1e-05
U30C U31C A48C C61A | < 1e-05 |  |  | < 1e-05 | 
U30A G32A G44C | < 1e-05 |  |  |  | 
U31C A33U U46A G66A | < 1e-05 |  | < 1e-05 | < 1e-05 | < 1e-05
U30C A33U U45G A52G | < 1e-05 |  |  |  | 
U30A A42C A53U C67A | < 1e-05 |  |  |  | 
U30A A42G | 0.000294 ± 7.3e-05 | 0.0017 ± 0.00047 |  |  | 0.0172 ± 0.0059
U31A A36G G41A C67G | < 1e-05 |  |  | < 1e-05 | 
U30C U49C G62C | < 1e-05 | < 1e-05 |  | < 1e-05 | 
U30C G40U C67G | < 1e-05 |  |  |  | < 1e-05
G29U G44U | < 1e-05 |  |  |  | 
U30G A52C | < 1e-05 |  |  |  | 
U30G A52U | < 1e-05 |  | < 1e-05 | 4.14e-05 ± 1.5e-05 | 5.6e-05 ± 1e-05
U30A A33U C34G G37A | < 1e-05 |  |  |  | 
U30C G40A A52G U55C C61G | < 1e-05 |  |  |  | < 1e-05

Variant | self-cleavage kobs at 40 uM GlcN6P (glucosamine-6-phosphate [1]) [s⁻¹] | self-cleavage kobs at 640 uM GlcN6P (glucosamine-6-phosphate [2]) [s⁻¹] | self-cleavage kobs at 160 uM GlcN6P (glucosamine-6-phosphate [3]) [s⁻¹] | self-cleavage kobs at 2500 uM GlcN6P (glucosamine-6-phosphate [4]) [s⁻¹] | self-cleavage kobs at 10000 uM GlcN6P (glucosamine-6-phosphate [5]) [s⁻¹]
G29C G62A | < 1e-05 | < 1e-05 |  |  | 
U30C U45A A52U | < 1e-05 |  |  |  | 
G29U U54G C58U U69G | 6.42e-05 ± 2.3e-05 |  |  |  | 
G29A U45A | 0.000219 ± 4.2e-05 | 0.00159 ± 0.00032 | 0.000411 ± 0.00014 | 0.00447 ± 0.0012 | 0.00857 ± 0.0012
G29C A33U U46C A52G C58G | < 1e-05 | < 1e-05 |  |  | 
G29U A52C U56A | < 1e-05 | < 1e-05 | < 1e-05 | < 1e-05 | < 1e-05
G29U U31C A36C | < 1e-05 |  |  | < 1e-05 | 
U31A G37C U69G | < 1e-05 |  |  |  | 
U31A C34G | < 1e-05 |  | < 1e-05 |  | < 1e-05
G29A G63U | < 1e-05 |  | < 1e-05 |  | < 1e-05
G29A G59A | < 1e-05 | < 1e-05 |  |  | 
U31G G37C A48U | < 1e-05 |  |  | < 1e-05 | < 1e-05
U30A U46G | 4.09e-05 ± 1.5e-05 |  |  | 0.000638 ± 0.00022 | 0.000702 ± 8.5e-05
U30C A52C A64C | < 1e-05 |  |  |  | 
C16U U54A | 0.000888 ± 0.00012 | 0.00323 ± 0.00079 | 0.00185 ± 0.0004 | 0.00607 ± 0.0014 | 0.0405 ± 0.0081
G29C C50A | < 1e-05 |  |  |  | 
U30C C68G | 3.15e-05 ± 1.2e-05 | 8.37e-05 ± 1.7e-05 | 5.26e-05 ± 1.7e-05 |  | 
C19U | 0.00125 ± 0.00046 | 0.00527 ± 0.0011 | 0.00445 ± 0.0011 | 0.0229 ± 0.0083 | 
U31C C34G | < 1e-05 |  | < 1e-05 |  | < 1e-05
U31C C34A | < 1e-05 |  | < 1e-05 | < 1e-05 | < 1e-05
U30A G35U | < 1e-05 | < 1e-05 | < 1e-05 | < 1e-05 | < 1e-05
U30C G51U C67A | < 1e-05 |  |  |  | < 1e-05
U31A C50U G51U A53G U54G | < 1e-05 | < 1e-05 | < 1e-05 |  | 
U30A U55A C61A | < 1e-05 |  |  | < 1e-05 | 
